# Experimental data from PubChem BioAssay AID1645882 (National Center for Advancing Translational Sciences (NCATS), 2021).
# Screen size: about 16,000 compounds; about 120 (0.75%) were called active. Not shown: some 4% with an inconclusive outcome. Calls come from the whole dose curve; as a rule, active = well fitted inhibition curve with a large enough effect; inconclusive = small, poorly fitted or top-dose-only effect; inactive = no such curve, though single readings can be large or run the other way. The list shows a part of the results.
# Target: Rap guanine nucleotide exchange factor 3 (Homo sapiens) (UniProt O95398)
# Chain of UniProt O95398 (O95398 whole entry, looked up): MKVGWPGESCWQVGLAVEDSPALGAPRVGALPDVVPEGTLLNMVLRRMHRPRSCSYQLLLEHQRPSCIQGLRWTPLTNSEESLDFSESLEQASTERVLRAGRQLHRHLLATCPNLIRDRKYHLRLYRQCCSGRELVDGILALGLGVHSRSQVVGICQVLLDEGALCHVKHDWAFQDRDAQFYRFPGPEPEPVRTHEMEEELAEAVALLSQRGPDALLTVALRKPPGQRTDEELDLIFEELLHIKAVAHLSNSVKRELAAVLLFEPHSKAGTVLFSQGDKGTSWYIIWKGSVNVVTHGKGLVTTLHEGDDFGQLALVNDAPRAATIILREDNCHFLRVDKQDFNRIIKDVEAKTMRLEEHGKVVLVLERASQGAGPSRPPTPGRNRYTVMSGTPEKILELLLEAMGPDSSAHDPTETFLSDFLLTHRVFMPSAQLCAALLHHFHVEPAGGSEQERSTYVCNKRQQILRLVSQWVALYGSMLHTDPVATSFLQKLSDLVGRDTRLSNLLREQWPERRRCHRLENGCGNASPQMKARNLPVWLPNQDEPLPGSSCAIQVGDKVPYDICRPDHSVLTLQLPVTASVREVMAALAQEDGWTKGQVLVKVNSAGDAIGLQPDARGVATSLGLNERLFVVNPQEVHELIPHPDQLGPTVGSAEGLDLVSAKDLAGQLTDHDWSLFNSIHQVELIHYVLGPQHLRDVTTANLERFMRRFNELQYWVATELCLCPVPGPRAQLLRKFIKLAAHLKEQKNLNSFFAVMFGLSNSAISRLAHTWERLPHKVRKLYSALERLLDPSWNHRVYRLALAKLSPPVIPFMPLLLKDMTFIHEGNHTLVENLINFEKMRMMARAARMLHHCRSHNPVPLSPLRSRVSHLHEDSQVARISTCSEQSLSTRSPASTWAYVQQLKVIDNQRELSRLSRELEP
# Experiment: Validation qHTS for antagonist of cAMP-regulated guanine nucleotide exchange factor 3 (EPAC1); note: nearly all actives have a fitted effect of over 75% in size;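 for activity change, negative = inhibition: plate controls were DMSO for no effect and ATA control for full effect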
# Conditions: EPAC1 Rap1B-BODIPY-GDP exchange, fluorescence; activity change, negative = inhibition: at the top concentration
# Method in brief: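 EPAC1 (100 nM) mixed with 250 nM RAP1B-BODIPY-GDP and 50 uM GDP; compounds in concentration series, 5 min at room temperature. Fluorescence (ex 480/em 540 nm) read every 5 min for 30 min; normalized to ATA control and DMSO.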
# Potency is the fitted concentration of half-maximal effect.
SMILES,"activity change, negative = inhibition",Potency
CCC1(CC)C(=O)NC(=O)NC1=O,inactive: 23.4%,–
Oc1ccc2c3c1O[C@H]1c4[nH]c5c(c4C[C@@]4(O)[C@@H](C2)N(CC2CC2)CC[C@]314)C[C@]1(O)[C@H]2Cc3ccc(O)c4c3[C@@]1(CCN2CC1CC1)[C@@H]5O4,inactive: 7.24%,–
O=C1C(Cl)=C(Cl)C(=O)C(Cl)=C1Cl,–,active: 39.8 µM
c1csc(CN2CC[C@@]3(CCCNC3)C2)n1,inactive: 16.6%,–
C[C@@H]1CN(C2CCC(C#N)(c3ccc(F)cc3)CC2)CC[C@]1(C(=O)O)c1ccccc1 (some centres not stated),inactive: 16.6% [at 75.8 µM],–
Clc1ccc(COC(Cn2ccnc2)c2ccc(Cl)cc2Cl)c(Cl)c1 (configuration not stated),inactive,–
CN1C2CCC1CC(OC(=O)C1CCC(C(=O)OC3CC4CCC(C3)N4C)(c3ccccc3)c3ccccc31)C2 (configuration not stated),inactive: 17.6%,–
NCC(N)C(=O)c1ccccc1 (configuration not stated),inactive: 20.8%,–
CC(=O)OC1CC[C@@]2(C)C3CC[C@]4(C)C(=O)CCC4C3CC[C@H]2C1 (some centres not stated),inactive: -6.77%,–
c1ccc2sc(SNC3CCCCC3)nc2c1,inactive: 3.51%,–
O=C(Nc1cccc(F)c1)N1CC[C@@]2(CCCN(C(=O)Oc3ccccc3)C2)C1,inactive: 6.78%,–
CC(C)(C)[C@]1(O)C[C@@H]2OC(=O)C[C@@]23C(=O)O[C@@H]2OC(=O)[C@H](O)[C@]213,inactive: 12.3%,–
O=C(NC(=O)c1c(F)cccc1F)Nc1ccc(Cl)c(Oc2ncc(C(F)(F)F)cc2Cl)c1,inactive: 15.1%,–
CC(=O)OC1C2CCC3C1(CC(O)[C@@]1(O)[C@@H](CC(O)C1(C)C)[C@]3(C)O)C[C@@]2(C)O (some centres not stated),inactive: 2.53%,–
Ic1cncc(OC[C@@H]2CCN2)c1,inactive: 2.38%,–
COc1ccc(OC)c(C(O)C(C)N)c1 (configuration not stated),inactive: 2.9% [at 75.8 µM],–
COC(=O)C1=CO[C@@H](C)[C@@H]2CN3CC[C@]4(C(=O)Nc5c4ccc(OC)c5OC)[C@H]3C[C@H]12,inactive: -6%,–
CCC(=O)O[C@H]1CC[C@H]2[C@@H]3CCC4=CC(=O)CC[C@]4(C)[C@H]3CC[C@]12C,inactive: -3.14% [at 75.8 µM],–
COc1cccc([C@@]2(O)CCCC[C@@H]2CN(C)C)c1,inactive: 11.4%,–
COC(=O)[C@@H]1[C@H]2CC[C@@H](C[C@H]1OC(=O)c1ccccc1)N2C,inactive: 10%,–
C[C@]12CCC3C(CC[C@H]4C[C@H](O)CC[C@]34C)C1CC[C@@H]2C(=O)CO (some centres not stated),inactive: 13.6% [at 75.8 µM],–
CNC(=O)N(C)c1nnc(C(C)(C)C)s1,inactive: -7.67%,–
CO[C@]12CC[C@@]3(C[C@@H]1[C@](C)(O)C(C)(C)C)[C@@H]1Cc4ccc(O)c5c4[C@@]3(CCN1CC1CC1)[C@H]2O5,inactive: -11.3% [at 320 µM],–
C=C1C([C@@H](O)C[C@H](C)C2O[C@@]3(CCCCO3)CC[C@H]2C)OC2CC[C@@]3(CC[C@@H](/C=C/[C@@H](C)C4CC(C)=C[C@]5(O4)O[C@H](C[C@@](C)(O)C(=O)O)CCC5O)O3)OC2[C@@H]1O (some centres not stated),inactive: 25.4% [at 7.83 µM],–
CN1CC[C@@]2(CCCN(C(=O)c3ccco3)C2)C1,inactive: 15.8%,–
C=CCN1C[C@H](C)N([C@@H](c2ccccc2)c2ccc(C(=O)N(CC)CC)cc2)C[C@H]1C,inactive: 3.7%,–

SMILES,"activity change, negative = inhibition",Potency
C=CCC1([C@H](C)CCC)C(=O)NC(=O)NC1=O,inactive: 24.4% [at 320 µM],–
O=[N+]([O-])c1ccc(O)c([N+](=O)[O-])c1,inactive: 5.37%,–
CN1CCCC2(CCN(C(=O)c3csnn3)CC2)C1,inactive: 13.4%,–
COC1=C[C@]23CCCN2CCc2cc4c(cc2[C@@H]3[C@@H]1O)OCO4,inactive: -4.13%,–
O[C@@H](Cc1ccncc1)C(Cl)(Cl)Cl,inactive: 1.31%,–
CC(=O)OC1CC2C(C)(C)C(=O)C=C[C@]2(C)C2CC[C@]3(C)C(=CC(=O)OC3c3ccoc3)[C@]12C (some centres not stated),inactive: -26.3%,–
CN1CCN(c2ccc3ccccc3n2)CC1,inactive,–
CCn1cnc2c(Nc3cccc(Cl)c3)nc(N[C@@H]3CCCC[C@@H]3N)nc21,inactive: -5.17% [at 75.8 µM],–
CN1[C@@H]2CC[C@H]1CC(OC(c1ccc(F)cc1)c1ccc(F)cc1)C2 (some centres not stated),inactive: -3.41%,–
C=CC1CN2CCC1CC2C(O)c1ccnc2ccccc12 (configuration not stated),inactive,–
C[C@H]1CCCC=CC2C[C@H](O)C[C@@H]2[C@H](O)C=CC(=O)O1 (some centres not stated),inactive: 17.8%,–
O=S1(=O)N(CCN2CC=C(c3c[nH]c4cc(F)ccc34)CC2)c2cccc3c2N1CCC3,inactive: -1.24% [at 75.8 µM],–
NC[C@H](CS(=O)(=O)O)c1ccc(Cl)cc1,inactive: -1.07%,–
N#CC(C#N)=Cc1ccc([N+](=O)[O-])c(O)c1,inactive,–
O=C(CCCN1CCC2(CC1)C(=O)N(Cc1cccc(F)c1)CN2c1ccccc1)c1ccc(F)cc1,inactive,–
c1ccc2c(c1)[nH]c1cnccc12,inactive: -8.13%,–
c1cc2c(c(NC3=NCCN3)c1)CCCC2,inactive: 25.4%,–
CN1CCCC2(CCN(C(=O)c3ccncc3)CC2)C1,inactive: 13.9%,–
CS(=O)(=O)N1CCC2(CC1)CN(Cc1ccncc1)C2,inactive: 13.1%,–
NC(=NCCCC(N)C(=O)O)N[N+](=O)[O-] (configuration not stated),inactive: 8.24%,–
CNC(=O)Oc1ccccc1C(=O)Nc1ccccc1,inactive: 10.1%,–
NCCc1c[nH]c2ccc(C(N)=O)cc12,inactive,–
COP(=S)(OC)Oc1cc(Cl)c(Cl)cc1Cl,inactive,–
COc1cc2occc2c2oc(=O)ccc12,inactive,–
C[C@@]12CCC3C(CCC4=CC(=O)CC[C@]43C)C1CCC2O (some centres not stated),inactive: -9.11%,–
CC1=C2C3OC(=O)C(C)C3CC[C@@]2(C)C=CC1=O (some centres not stated),inactive: 17.7%,–

SMILES,"activity change, negative = inhibition",Potency
Oc1ccc2c3c1O[C@H]1c4oc5ccccc5c4C[C@]4(O)[C@H](C2)N(CC2CC2)CC[C@@]314,inactive: -3.94%,–
CN1C(=O)C(O)N=C(c2ccccc2)c2cc(Cl)ccc21 (configuration not stated),inactive: 1.83%,–
O=S(=O)(O)C(F)(F)C(F)(F)C(F)(F)C(F)(F)F,inactive: 30.7% [at 320 µM],–
O=C(NC1CCCCC1)[C@@H]1CC=C[C@@H]2CCN(Cc3ccccc3)C(=O)[C@@H]21,inactive: 0.643%,–
Cc1ccc(C(=O)CN2CCOCC2)cc1,inactive: 19.5%,–
COc1ccc(C2Oc3c(I)c(OC)cc(OC)c3CC2O)cc1OC (configuration not stated),inactive: -22.1%,–
CCOC(=O)[C@]12Cc3cc(OC)c(OC)cc3[C@H]1N(Cc1ccccc1)C(=O)c1ccccc12,inactive: 4.48%,–
CCCCCCCCC(=O)NCc1ccc(O)c(OC)c1,inactive,–
C=C1[C@@H](O)C2C=CC[C@H](C)C(=O)[C@@](C)(O)C=C[C@@H](OC(C)=O)[C@@]23C(=O)N[C@H](Cc2ccccc2)[C@@H]3[C@@H]1C (some centres not stated),inactive: 5.38%,–
CN[C@@H](Cc1c[nH]c2ccccc12)C(=O)O,inactive: 11.7%,–
CCOP(=O)(NC(C)C)Oc1ccc(SC)c(C)c1 (configuration not stated),inactive: 19% [at 320 µM],–
CC1OC(C)OC(C)O1 (configuration not stated),inactive,–
S=C(SSC(=S)N1CCCCC1)N1CCCCC1,inactive: -7.93%,–
CCCCCCCCCC[N+](C)(C)CCCCCCCCCC,inactive: -7.1%,–
Nc1ccc([As](=O)(O)O)cc1,inactive: 6.51%,–
C[C@]12CC[C@H]3[C@@H](CCC4=C(O)C(=O)CC[C@@H]43)[C@@H]1CC[C@@H]2OC(=O)CCC1CCCC1,inactive: 15.7%,–
COc1ccc(/C=C/c2cc(O)cc(O)c2)cc1,inactive: 7.47%,–
O[C@H]1CCCC[C@H]1N1CCC(c2ccccc2)CC1,inactive: 3.47%,–
O=c1ccc2[nH]cc(C3=CCNCC3)c2[nH]1,inactive: 6.78%,–
C=CCN1CC[C@]23CCCC[C@H]2[C@H]1Cc1ccc(O)cc13,inactive: 22.8%,–
c1ccc(N2CC[C@@]3(CCCNC3)C2)cc1,inactive: 13.5%,–
FC(F)(F)c1cccc(C2=CCN(CCc3ccc4ccccc4c3)CC2)c1,inactive: 11.3%,–
CC(C)c1ccc2c(c1O)CCC1C3=C(CC[C@]21C)C(=O)OC3 (some centres not stated),inactive: -6.12%,–
ClC1=C(Cl)C2(Cl)C(CBr)CC1(Cl)C2(Cl)Cl (configuration not stated),inactive: 8.34%,–
O=c1[nH]c2ccccc2n1C1CCN(CCCC(c2ccc(F)cc2)c2ccc(F)cc2)CC1,inactive,–
CC(=O)[O][Hg][c]1ccccc1,inactive: 18.6%,–

SMILES,"activity change, negative = inhibition",Potency
CC(=O)O[C@H]1C[C@H](O[C@H]2[C@@H](O)C[C@H](O[C@H]3[C@@H](O)C[C@H](OC4CC[C@@]5(C)C(CC[C@@H]6[C@@H]5CC[C@]5(C)[C@@H](C7=CC(=O)OC7)[C@@H](O)C[C@]65O)C4)O[C@@H]3C)O[C@@H]2C)O[C@H](C)[C@H]1O[C@@H]1O[C@H](CO)[C@@H](O)[C@H](O)[C@H]1O (some centres not stated),inactive: 9.65%,–
CC(=O)Oc1ccc2c3c1O[C@H]1[C@@H](OC(C)=O)C=C[C@H]4[C@@H](C2)N(C)CC[C@@]341,inactive,–
CCN(CCO)CCn1c(Cc2ccccc2)nc2c1c(=O)n(C)c(=O)n2C,inactive: 11.6%,–
NCC[C@H](O)C(=O)N[C@@H]1C[C@H](N)[C@@H](O[C@H]2O[C@H](CN)[C@@H](O)[C@H](O)[C@H]2N)[C@H](O[C@@H]2O[C@H](CO)[C@@H](O)[C@H]2O)[C@H]1O,inactive: -0.162% [at 75.8 µM],–
C=CCOC(Cn1ccnc1)c1ccc(Cl)cc1Cl (configuration not stated),inactive: 29.6%,–
CC(=O)Nc1cc([As](=O)(O)O)ccc1O,inactive: 14.8%,–
O=C(O)/C=C/CO,inactive,–
CCCN1CC[C@@H]2c3cc(O)ccc3CC[C@@H]21,inactive: -1.56% [at 75.8 µM],–
COc1ccc2c(C(=O)c3ccc(Cl)cc3)c(C)n(CC(=O)O)c2c1,inactive: 33.6%,–
COC(COC(N)=O)C1=C(N2CC2)C(=O)C(C)=C(N2CC2)C1=O (configuration not stated),inactive: 9.9%,–
NC(C(=O)O)c1cc(=O)[nH]o1 (configuration not stated),inactive,–
CCC(C(N)=O)N1CCCC1=O (configuration not stated),inactive: 19.9%,–
CCCCCCCCCCCC[N+](C)(C)CCOc1ccccc1,inactive: -3.93%,–
C[N+]1([O-])[C@@H]2CC[C@H]1CC(OC(=O)C(CO)c1ccccc1)C2 (some centres not stated),inactive,–
CC(C)(c1ccc(OC[C@@H]2CO2)cc1)c1ccc(OC[C@H]2CO2)cc1,inactive: -6.3%,–
Nc1ccc(CCN2CCN(c3cccc(C(F)(F)F)c3)CC2)cc1,inactive,–
COc1cccc2c1cc([N+](=O)[O-])c1c(C(=O)O)cc3c(c12)OCO3,inactive,–
CC(C)NCC(O)c1ccccc1Cl (configuration not stated),inactive: 2.17%,–
CC(=O)NCCc1c[nH]c2ccccc12,inactive,–
CC[N+](C)(CC)CCOC(=O)C(O)(c1ccccc1)c1ccccc1,inactive: 6.99%,–
O=C(Nc1ccccc1-c1ccc(Cl)cc1)c1cccnc1Cl,inactive: 9.77% [at 320 µM],–
CNCC/C=C\c1cccnc1,inactive: 5.38%,–
CCc1c(C(=O)OC)ncc2[nH]c3cc(OC)c(OC)cc3c12,inactive: -16%,–
O[C@@H]1CCCN2C[C@@H](O)[C@@H](O)C12 (some centres not stated),inactive: 19.9% [at 320 µM],–
